Hit rate of the full screen: of about 43,000 compounds, about 200 (0.47%) were called active. The inconclusive results got no clear call from the source; some entries with a clear call stand among them for comparison. The call rests on the fitted dose curve; in most records, active means well fitted cell-killing curve with a large enough effect; inconclusive means small, poorly fitted or top-dose-only effect, or effect the other way; inactive means flat fitted curve, though single readings scatter. A potency beside an inconclusive call is a rough fit, not a confirmed value.
Test: Cell viability qHTS assay in S16 Pmp22-F2sN cells; further: nearly all actives have a fitted effect of over 65% in size
Conditions: S16 Pmp22-F2sN Schwann cells (luciferase reporters placed in the Pmp22 gene) viability, CellTiter-Glo, 24 h; activity change, negative = cytotoxicity: at 57.5 µM (top of the series)
Method in brief: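 Seed 500-1,000 S16 Pmp22-F2sN cells per well in phenol-red-free DMEM with 10% heat-inactivated FBS; pin-add 23 nL compound; incubate 24 h at 37C; add CellTiter-Glo, wait 15 min protected from light; read luminescence.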
On the % scale 0 is the no-effect control and ±100 the full control effect; potency means the concentration at half of the fitted maximal effect; tags describe the fitted curve by direction and shape.

Row | Compound | Potency | activity change, negative = cytotoxicity
1 | COc1cccc(C2=CC(c3ccccc3F)n3ncc(C(=O)Nc4ccc(F)cc4)c3N2)c1 (centres undefined) | inconclusive: 39.8 µM [cytotoxic, single point] | –
2 | Cc1ccc2c(c1)C(c1ccccc1)N(C(=O)COc1ccc(Cl)cc1Cl)CC(=O)N2 (centres undefined) | inconclusive: 39.8 µM [cytotoxic, single point] | –
3 | COc1cccc(C(=O)Nc2nc(-c3nnn(-c4ccccc4C(F)(F)F)c3C)ns2)c1 | inconclusive: 39.8 µM [cytotoxic, single point] | –
4 | COc1cccc(-c2nc(Cn3c(=O)cc(C)c4c(C)nn(-c5ccccc5)c43)c(C)o2)c1OC | inconclusive: 0.398 µM [cytotoxic, full curve, poor fit] | –
5 | Cc1c(Cl)ccc2sc(N3CCN(C(=O)CCS(=O)(=O)c4ccc(F)cc4)CC3)nc12 | inconclusive: 12.6 µM [cytotoxic, partial curve, poor fit] | –
6 | CCCCN1C(=O)C(O)(CC(=O)c2ccc(CC)cc2)c2cc(Br)ccc21 (centres undefined) | inconclusive: 39.8 µM [cytotoxic, single point] | –
7 | Cn1c(=O)c2cc(S(=O)(=O)NC(Cc3ccccc3)C(=O)Nc3ccc(F)cc3)ccc2n(C)c1=O (centres undefined) | inconclusive: 44.7 µM [rising, partial curve, poor fit] | –
8 | Cc1cc(Nc2ccc(C)c(Cl)c2)n2nc(Cc3ccccc3)nc2n1 | inconclusive: 39.8 µM [cytotoxic, single point] | –
9 | CC(C)(C)c1ccc(S(=O)(=O)NCc2ccc3c(c2)CCN3C(=O)c2ccccc2)cc1 | inconclusive: 20 µM [cytotoxic, single point] | –
10 | CCC(=O)N1CCc2cc(Br)cc(S(=O)(=O)CCC(=O)N3CCN(c4cccc(C(F)(F)F)c4)CC3)c21 | inconclusive: 39.8 µM [cytotoxic, single point] | –
11 | Cc1ccc(S(=O)(=O)Cc2ccc(C(=O)N3CCN(c4cccc(C)c4C)CC3)o2)cc1 | – | inactive: -18.7%
12 | CCC1CN(C(=O)N2CCC(C(=O)N3CCN(c4cccc(C)c4C)CC3)CC2)c2ccccc2O1 (centres undefined) | inconclusive: 14.1 µM [cytotoxic, partial curve, poor fit] | –
13 | Cc1ccc(Cl)cc1NC(=O)CCC(=O)N1CC(C)Sc2ccccc21 (centres undefined) | inconclusive: 39.8 µM [cytotoxic, partial curve, poor fit] | –
14 | Cc1cccc(N2CCN(C(=O)c3cccn4c(=O)c5cc(Cl)ccc5nc34)CC2C)c1 (centres undefined) | inconclusive: 22.4 µM [cytotoxic, partial curve, poor fit] | –
15 | Cc1ccc(C2CC(=O)N(Cc3ccccc3F)c3c2c(C)nn3-c2nc(C)cc(C)n2)cc1 (centres undefined) | inconclusive: 35.5 µM [cytotoxic, partial curve, poor fit] | –
16 | COc1ccc(OC)c(NC2=C(c3ccccc3)C(=O)c3ccccc32)c1 | inconclusive: 2 µM [cytotoxic, full curve, poor fit] | –
17 | CCN(CC)c1nc(-c2ccc(C(C)(C)C)cc2)nc2ccccc12 | inconclusive: 39.8 µM [cytotoxic, single point] | –
18 | CCOc1ccccc1-n1ccnc(NCc2ccc(F)cc2)c1=O | inconclusive: 25.1 µM [rising, partial curve, poor fit] | –
19 | Cc1ccccc1CNC(=O)c1ccc(NC(=O)c2nsc3ccccc23)cc1 | inconclusive: 39.8 µM [cytotoxic, single point] | –
20 | CCn1c(=O)cc(SCC(=O)Nc2ccc(C)c(F)c2)c2ccccc21 | – | inactive: -0.499%

Row | Compound | Potency | activity change, negative = cytotoxicity
21 | Cc1[nH]n2c(=O)cc(-c3ccccc3Cl)nc2c1-c1ccccc1 | inconclusive: 25.1 µM [cytotoxic, single point] | –
22 | Cc1cc(NC(=O)CN2C(=O)C(C)(C)c3ccccc32)ccc1Br | inconclusive: 39.8 µM [cytotoxic, partial curve, poor fit] | –
23 | COc1cc(NC(=O)c2nnn(Cc3ccc(F)cc3)c2N)cc(OC)c1 | inconclusive: 8.91 µM [cytotoxic, partial curve] | –
24 | CCOC(=O)c1cnn(-c2ccc(OC)cc2)c1C1CCN(C(=O)OC(C)(C)C)CC1 | inconclusive: 39.8 µM [cytotoxic, single point] | –
25 | COc1ccc(S(=O)(=O)NCCc2cc3ccc(C)c(C)c3[nH]c2=O)cc1 | inconclusive: 1.78 µM [cytotoxic, full curve, poor fit] | –
26 | COc1cc(/C=C/c2nc(C#N)c(N3CCCCCC3)o2)cc(OC)c1OC | inconclusive: 31.6 µM [cytotoxic, single point] | –
27 | Cc1cccc(C)c1NC(=O)Cn1c(=O)n(Cc2ccccc2)c(=O)c2c(C)c(C(=O)N(C)C)sc21 | inconclusive: 25.1 µM [cytotoxic, partial curve, poor fit] | –
28 | COc1cccc(-n2cc(C(=O)NCCc3ccc(C)cc3)c3ccccc3c2=O)c1 | inconclusive: 17.8 µM [cytotoxic, single point] | –
29 | COc1ccc(CCNC(=O)c2ccc3c(c2)c(C)c(C)n3Cc2ccc(F)cc2)c(OC)c1OC | inconclusive: 28.2 µM [cytotoxic, single point] | –
30 | Cc1ccc2nc(-c3ccccc3F)c(Nc3ccc(Cl)cc3)n2c1 | – | inactive: 17.8%
31 | COc1ccc(-c2nc3c4ccccc4n(CC(=O)N4CCN(c5ccccc5OC)CC4)c(=O)n3n2)cc1 | – | inactive: 15.6%
32 | O=S(=O)(NCc1ccc(F)cc1)c1ccc(-c2cnc(C3CC3)o2)cc1 | inconclusive: 20 µM [cytotoxic, single point] | –
33 | CCN(CC)CC(C)CNC(=O)c1cc(-c2ccc(Br)s2)nc2ccccc12 (centres undefined) | inconclusive: 28.2 µM [cytotoxic, single point] | –
34 | CCOC(=O)c1ccc(NS(=O)(=O)c2ccc3c(c2)n(C)c(=O)n3C)cc1 | inconclusive: 4.47 µM [cytotoxic, partial curve, poor fit] | –
35 | COc1ccc(C(=O)N2CCN(Cc3cc(=O)n4nc(-c5ccccc5C)sc4n3)CC2)cc1OC | inconclusive: 0.891 µM [cytotoxic, full curve] | –
36 | Cc1c(C(=O)Nc2ccccc2F)sc2ncnc(N(C)C3CCCCC3)c12 | inconclusive: 39.8 µM [cytotoxic, single point] | –
37 | CCOC(=O)c1cc(S(=O)(=O)N2CCN(c3ccc(C(C)=O)cc3)CC2)[nH]n1 | inconclusive: 0.631 µM [cytotoxic, full curve, poor fit] | –
38 | O=C(Nc1ccccc1Br)C(Cc1ccccc1)NS(=O)(=O)c1cccc2nsnc12 (centres undefined) | – | inactive: -0.723%
39 | O=S(=O)(c1ccc2nc(NCc3ccccc3Cl)ccc2c1)N1CCCCC1 | inconclusive: 39.8 µM [cytotoxic, single point] | –
40 | O=C(Nc1nc2ccccc2s1)c1ccc(S(=O)(=O)N2CCCC2)cc1 | – | inactive: 0.882%

Row | Compound | Potency | activity change, negative = cytotoxicity
41 | COc1cc(Cl)c(NS(=O)(=O)c2ccc(-c3cnc(C4CC4)o3)cc2)c(OC)c1 | active: 1.26 µM | –
42 | COc1ccc(NC(=O)Cn2c(SCc3ccc(F)cc3)nc3cccnc32)cc1OC | – | inactive: -13%
43 | CCOc1ccc(S(=O)(=O)N(CC(=O)NCc2ccccc2OC)c2ccccc2)cc1 | inconclusive: 39.8 µM [rising, single point] | –
44 | COc1ccc(C(=O)N2CCC(C(=O)Nc3ccc(Cl)cc3)CC2)cc1 | inconclusive: 39.8 µM [cytotoxic, partial curve, poor fit] | –
45 | COc1cc(OC)c(NC(=O)c2cc(C)nc3c2c(C)nn3-c2ccc(C)cc2)cc1Cl | – | inactive: 7.73%
46 | CCOc1ccccc1Nc1nnc(-c2cc3cc(OC)ccc3oc2=O)s1 | inconclusive: 39.8 µM [cytotoxic, single point] | –
47 | COc1ccc(Nc2c3c(nc4ccc(NC(=O)/C=C/c5cccc(OC)c5OC)cc24)CCCC3)cc1OC | inconclusive: 28.2 µM [cytotoxic, single point] | –
48 | Cc1ccc(CN(Cc2cccn2-c2nnc(N3CCCC3=O)s2)C(=O)Nc2ccccc2C(F)(F)F)cc1 | inconclusive: 28.2 µM [cytotoxic, single point] | –
49 | CCOc1ccc(C2CC(=O)c3c([nH]c(C(=O)OC4CCC(C)CC4)c3C)C2)cc1 (centres undefined) | – | inactive: 4.2%
50 | O=C(NC1CC(=O)N(c2cccc(F)c2)C1)C(c1ccccc1)c1ccccc1 (centres undefined) | – | inactive: -2.36%
51 | CCCN1CCN(c2cc3c(cc2F)c(=O)c(S(=O)(=O)c2ccc(Cl)cc2)cn3C)CC1 | inconclusive: 3.55 µM [rising, single point] | –
52 | COc1ccc(C(=O)NCC(c2ccc(N(C)C)cc2)N2CCc3ccccc32)cc1 (centres undefined) | inconclusive: 28.2 µM [cytotoxic, single point] | –
53 | CCn1c(=O)cc(OCC(=O)N2CCN(c3ccccc3OC)CC2)c2ccccc21 | – | inactive: -11.6%
54 | COc1ccc(Cl)cc1NC(=O)Cn1cnc2c1c(=O)n(C)c(=O)n2C | inconclusive: 1.78 µM [cytotoxic, full curve, poor fit] | –
55 | COc1cccc(NC(=O)C2CCN(c3nc4ccccc4nc3C(F)(F)F)CC2)c1 | inconclusive: 10 µM [cytotoxic, partial curve, poor fit] | –
56 | COc1ccc(-n2c(-c3ccco3)nc3c(cnn3-c3ccccc3C)c2=O)cc1 | inconclusive: 1.78 µM [rising, partial curve, poor fit] | –
57 | Cc1ccccc1CNC(=O)c1cc2cc(S(=O)(=O)N3CCCCC3)ccc2n1C | inconclusive: 20 µM [cytotoxic, single point] | –
58 | O=C(NCc1ccc(F)cc1)c1ccc(Cn2c(SCc3ccc(F)cc3)nc3cccnc32)cc1 | – | inactive: -1.3%
59 | Cc1cc(C)cc(NC(=O)c2cnn(-c3ccc(C)c(C)c3)c2C2CCNCC2)c1 | inconclusive: 31.6 µM [cytotoxic, single point] | –

— PubChem BioAssay AID1508642 (National Center for Advancing Translational Sciences (NCATS), 2021)
